The other results are listed elsewhere or left out.

The target of the test is T1, OsWOX13 (Oryza sativa, UniProt Q5QMM3 1-267).
T1 sequence: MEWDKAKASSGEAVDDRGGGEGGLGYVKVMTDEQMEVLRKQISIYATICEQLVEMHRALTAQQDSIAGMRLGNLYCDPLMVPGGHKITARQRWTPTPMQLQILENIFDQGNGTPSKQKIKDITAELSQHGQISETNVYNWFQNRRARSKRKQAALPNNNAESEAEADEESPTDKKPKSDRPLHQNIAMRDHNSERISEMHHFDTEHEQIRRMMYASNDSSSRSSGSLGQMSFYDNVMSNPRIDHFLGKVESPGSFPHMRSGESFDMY
The test is described as follows: protein-binding microarray (RPBM); PBS, 2% BSA, 51.3 ng/ul salmon testes DNA, 50 uM zinc acetate, 200 nM TF, 25 C, 1 h; high values mean tight binding. Particulars: protein: recombinant; tags: N-terminal polyhistidine and DsRed monomer fusion (pET32a); label: CyDye5-dUTP incorporated in the synthesized complementary strand; 3' TTTTT single-stranded linker to array surface; dsDNA, one strand shown. The method in brief: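 Binding signal is reported as fluorescence intensity per feature (arbitrary units) from an Axon 4000B scanner. Incubation used 200 nM of each Ni–NTA-purified, N-terminally polyhistidine- and DsRed-fused transcription factor from E. coli BL21-CodonPlus on a double-stranded custom Agilent array for 1 h at 25 °C, with 50 µM zinc acetate in the buffer, followed by washing.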
Take “AGTAATTTATTCCTTATTGGTTTTCACAACTCAAATAATTCGGAGTCACCTAGTGCAG”: the binding signal was 11400 fluorescence intensity (a.u.).
To “GCCTAATTAGTTCATGATTAGCAACAAGTGCTACAGTAACCGGAGTCACCTAGTGCAG” belongs 49300 fluorescence intensity (a.u.).
For the sequence “TTTTCCCGGTCAACTAGTAATTGATTAGTAACTCGTACAACGGAGTCACCTAGTGCAG”, the binding signal was 20500 fluorescence intensity (a.u.).
For the sequence “TTAACGGTTGGTAATTAGCTACGTGGATCAACGACGATACCGGAGTCACCTAGTGCAG”, the binding signal was 7660 fluorescence intensity (a.u.).
Turning to “TAAATTGACAAATTCAACCTAGGCCTGGACTTATTTGGCGCGGAGTCACCTAGTGCAG”, the binding signal is 57500 fluorescence intensity (a.u.).
To “ACAAAGATGATGGATTTGATGTCGTCCATGGCGAGCGGGACGGAGTCACCTAGTGCAG” belongs 4510 fluorescence intensity (a.u.); to “GGCTGACAGTGATAGAACAAATCGAAGTCAACCTTGATTTCGGAGTCACCTAGTGCAG”, 23700 fluorescence intensity (a.u.).
With “CCTAGTAATTGCTGATTGCTGTCGCCTTAATTTCAAATTGCGGAGTCACCTAGTGCAG”, the binding signal was 26400 fluorescence intensity (a.u.).
Under “TATCAAGTCAATCAACCAAATGTCCATTCATACAACTATCCGGAGTCACCTAGTGCAG” stands 15300 fluorescence intensity (a.u.); under “AAGTAAATTTATATATATGATCAAAGTAACATACATATACCGGAGTCACCTAGTGCAG”, 12400 fluorescence intensity (a.u.).
Regarding “GATGACATTGATGAGATCAGGCAGTATAGGGATGCACGGTCGGAGTCACCTAGTGCAG”, the binding signal was 8940 fluorescence intensity (a.u.).
Take “CATGGTCGTGATTGTATCTGTAGTTTCTGTACAGAGTAGCCGGAGTCACCTAGTGCAG”: the binding signal is 7690 fluorescence intensity (a.u.).
On to “CTAAATCAATTCTAAATCGGTAGTTTTATGATAATTTTGTCGGAGTCACCTAGTGCAG”, for which the binding signal is 5000 fluorescence intensity (a.u.).
As to “GAAATTTGTGATATATATATATATATCACTAATTAATAGTCGGAGTCACCTAGTGCAG”, the binding signal was 4970 fluorescence intensity (a.u.).
To “TTGTTGATTTGATAACAAAATGAACAAGCTGCTTTAAATTCGGAGTCACCTAGTGCAG” belongs 3670 fluorescence intensity (a.u.).
To “TAAAATTAAATCGTAACCGATATACAATTACAATATAACTCGGAGTCACCTAGTGCAG” belongs 4960 fluorescence intensity (a.u.); to “CTATGATTGGTCAAGTGCTGTTGCTATTTCTCTGCTGATACGGAGTCACCTAGTGCAG”, 40900 fluorescence intensity (a.u.); to “TGCCATTAATGATTTCAAATTTGATCAATATATCCCTCCACGGAGTCACCTAGTGCAG”, 17900 fluorescence intensity (a.u.).
With “CATCATACCTCGTAATTACCCTGGTCATTGTGTCTATGGACGGAGTCACCTAGTGCAG”, the binding signal is 3910 fluorescence intensity (a.u.).
“CGGATTGATAGTCACTAATACCTATGTTTTGTGATGGGGACGGAGTCACCTAGTGCAG”: the binding signal was 42000 fluorescence intensity (a.u.).
As to “CCTCCTTGATGGGATGGACGGGAGGGTGCTTTGAATATTTCGGAGTCACCTAGTGCAG”, the binding signal is 6960 fluorescence intensity (a.u.).
In the case of “AGTGATTTTGCTCATCAAGTAGTGGTTGTGACTTGTGAGGCGGAGTCACCTAGTGCAG”, the binding signal was 19300 fluorescence intensity (a.u.).
“TGAGTGATCGTGTAATTCGCACGTAATTACCGAAGAAAGGCGGAGTCACCTAGTGCAG”: the binding signal is 3660 fluorescence intensity (a.u.).
To “TAAATAAATTGCTAAATATATTATAGAGAGTTTGATCCTGCGGAGTCACCTAGTGCAG” belongs 19700 fluorescence intensity (a.u.); to “CCTGACATTACTGTCACTACACACCATGCGTATGATGCAACGGAGTCACCTAGTGCAG”, 4990 fluorescence intensity (a.u.); to “CCCTGACTATATTCATTATTACATCTCACATAGCGATACGCGGAGTCACCTAGTGCAG”, 4660 fluorescence intensity (a.u.).
Take “ATCATATCAGTAAATTAGTTGGAAACCGAAGTCATAAACTCGGAGTCACCTAGTGCAG”: the binding signal is 3290 fluorescence intensity (a.u.).
As for “ACATTAAACCTATAGTTTTATGATAAGTTTGGTGTTAAATCGGAGTCACCTAGTGCAG”, the binding signal is 16900 fluorescence intensity (a.u.).
To “TTCGCTTTGATGGACGGCTCAGATCGGCTCCTAATCCATCCGGAGTCACCTAGTGCAG” belongs 3310 fluorescence intensity (a.u.); to “GGGCATAGTTACTATTGATTAGGATCTCACTAATGCAGATCGGAGTCACCTAGTGCAG”, 6120 fluorescence intensity (a.u.).
To “CATTTAAACAGATAAATATGTCGTTTTCTAATTGTAATTGCGGAGTCACCTAGTGCAG” belongs 10400 fluorescence intensity (a.u.); to “GAACAATAGATTAATATATAATTAAATAAATATTAGTCAACGGAGTCACCTAGTGCAG”, 25100 fluorescence intensity (a.u.).
To “CCTAACTGAGAGCCCTCCACTCGGAGCAACTTATAGTTCACGGAGTCACCTAGTGCAG” belongs 3390 fluorescence intensity (a.u.); to “TGAAATTAATAGGATGCCACGTCCTCATCCTAGGTAAAATCGGAGTCACCTAGTGCAG”, 4770 fluorescence intensity (a.u.); to “CTGTTTGGCCATAATTGGAAACCGAAACTGCGCACAGCAGCGGAGTCACCTAGTGCAG”, 6590 fluorescence intensity (a.u.).
Take “AACATTAATTGCAAGTTATGACCTTTCTTTTCCCCTAATACGGAGTCACCTAGTGCAG”: the binding signal is 26400 fluorescence intensity (a.u.).
As for “TTTAATGGTTAGAGTCATGATTGGCTTAGGTACTGTGAGACGGAGTCACCTAGTGCAG”, the binding signal is 3440 fluorescence intensity (a.u.).
As for “ATTATTCCGTGTATGTTGATTATCTCATCTTCTCCTAGGGCGGAGTCACCTAGTGCAG”, the binding signal is 3250 fluorescence intensity (a.u.).
To “CAAAATCCTGATAATGATCGATTGTCCCCGCTATGAACACCGGAGTCACCTAGTGCAG” belongs 3200 fluorescence intensity (a.u.); to “GGAAACTAACATGTTAATTAGCACATAAGTAATTAAGTATCGGAGTCACCTAGTGCAG”, 32300 fluorescence intensity (a.u.); to “AATAATTGAATTGATTCCATATTTATGGAATTCATGTGTCCGGAGTCACCTAGTGCAG”, 49700 fluorescence intensity (a.u.).
Consider “TCTGCAAATTAATAATTGAGCCGTCCATTTCACCATTAGACGGAGTCACCTAGTGCAG”, for which the binding signal was 29300 fluorescence intensity (a.u.).

Source of the values: paper PMC7819943, “Rice protein-binding microarrays: a tool to detect cis-acting elements near promoter regions in rice”.
